From publication PMC12136788 come the findings set out here.

First the molecules themselves.
B1: chr2:198267414:198267415:-_ENSG00000115524_ENST00000335508|hu_mus|FALSE|FALSE (ssRNA)
RNA: GGGAGUUCUACAGUCCGACGAUCCUUAAUACCAGUGUGCCUCGCUUGCCAAGACUUCUUGCUUUUGCACACAGCUUUUAAGAAAGGCAAUAAAGAAGGGAUGCCCAGGGCAGAGGCUACGACAGCAAAAGCUCUAGCUGUUGUCAACAGAGGAUUGAGCAUCA
B2: chr4:76721835:76721836:+_ENSG00000138768_ENST00000264904|hu_mus|hu_hu_hu_mus_True|38_108 (ssRNA)
RNA: GGGAGUUCUACAGUCCGACGAUCGUUGGCUGGGGUUUUCUGAGACGCUCUGGAAUAUAACUCAUGUUUGCUAAUAAAUCCUAGUUUCUCUAUGAAAUCUCUUUGCCCAAUCCUCUUCUCUAUUAGUUGCUUUAGUUUCUCUUUCAACAGAGGAUUGAGCAUCA
B3: 42876404_42876524_3757_CDS_ENSG00000023516_ENST00000025301|human|control|control (ssRNA)
RNA: GGGAGUUCUACAGUCCGACGAUCUGCCAUUUCAGUUGCAAGAGAAAGGAUGUGUGUAGCUAAUGCUUCUGCAAACUGAACCUUCUUCCCUGAGUGCUCCGACUUCACAUCCACUUCUGGGAGCUCUCCACUUUCACUACUCUCCAACAGAGGAUUGAGCAUCA
B4: chr7:44244176:44244177:+_ENSG00000106636_ENST00000223369|hu_mus|hu_hu_hu_mus_False|38_88 (ssRNA)
RNA: GGGAGUUCUACAGUCCGACGAUCACUGUCGCUCCGGACGUAGACAUGGCACAGAUACUCUUGUUCUUUGACAGAAGCUCUGCUGCCUUUCCCCGAGCGCUCCACAAUCAGUUGACUUGUAAAGGUCAUGAAUUCCUGCACACUCAACAGAGGAUUGAGCAUCA
B5: chr19:32867047:32867048:+_ENSMUSG00000013663_ENSMUST00000013807|mus_mus|FALSE|FALSE (ssRNA)
RNA: GGGAGUUCUACAGUCCGACGAUCAGCACAUAGAUUGUAUAUCUUGUAAUGGUUUUUAUGCUUUGAAUCCAAAAACCUUACUACAUCAUCAAUAUUGUUCCUGUAUACACCUUCAAGUCUUUCUGCAGGAAAUCCCAUAGCAAUCAACAGAGGAUUGAGCAUCA
B6: 48807359_48807479_126_5pUTR_ENSG00000136156_ENST00000378565|human|control|control (ssRNA)
RNA: GGGAGUUCUACAGUCCGACGAUCCCUCGAAGGGCGGCGGCGGGCUCGGGGCGCGGGCUGCGGGCUCCCGGCUGCGAUUGCAGCCUCUACGGCCGGGCUCCGGGAGCGGCUCCGGGCGGCUGAAGAGGUUCGGGAAGCUCCGCGCAACAGAGGAUUGAGCAUCA
B7: chr17:37088456:37088457:-_ENSMUSG00000036398_ENSMUST00000040402|mus_hu|FALSE|FALSE (ssRNA)
RNA: GGGAGUUCUACAGUCCGACGAUCGUAACCGUUGUCUCAGUGACGGUCUCGCUCAGCCCAGCCCCUGCCUCGGCCAUGGCUAAGGCUCAGGACAGGGAGGAGAGGAGGAAGGGGGAUGAGACACCCUUCCCUUUUUCUGUCGCUCAACAGAGGAUUGAGCAUCA
B8: 17153793_17153913_863_3pUTR_ENSMUSG00000038965_ENSMUST00000090192|mouse|control|control (ssRNA)
RNA: GGGAGUUCUACAGUCCGACGAUCAAACGUUGUCAGUGCUGCGGCCACCUCUGUGGGGAGCUGGGGCCUUGGUCUGUGGAAGUGGGAAUCGAAAAGUGGGGAGAGGGGAAGGGGGAAGAAACCACAACAACCUUUUUCUUUAAACAACAGAGGAUUGAGCAUCA
B9: chrX:16870723:16870724:-_ENSG00000102054_ENST00000404022|hu_hu|FALSE|FALSE (ssRNA)
RNA: GGGAGUUCUACAGUCCGACGAUCUUUAUGAGAUUCGAAGGUAUGGAGUUUUAAUUUUAAGUUACGCAGAUCCCAUAAAGCUACGGUCUUAUCCGCAGAGCCGGUGGCUAGAAUAAAUUCGCUGUAGGGAUUGAAUGAGAGGCACAACAGAGGAUUGAGCAUCA
B10: chr3:159597999:159598000:+_ENSMUSG00000028173_ENSMUST00000068952|mus_mus|FALSE|FALSE (ssRNA)
RNA: GGGAGUUCUACAGUCCGACGAUCAGCAAGAAGUUAAAAAAAGCUUUUAGGACCCAAAGGCCAUUUAAUACCAGAAAUCCUAUUUGGGUAGUUAAGCAAAUAUUUCUCAAAAUCCACAAACAAACAGACAGAUUAGUAUCAAAUCAACAGAGGAUUGAGCAUCA
B11: chr11:77336104:77336105:-_ENSG00000074201_ENST00000525064|hu_mus|hu_hu_hu_mus_False|48_88 (ssRNA)
RNA: GGGAGUUCUACAGUCCGACGAUCCUCACACAUUGCUGUGAACAUCGCCUCCAACGCUGACUUAUCACUGGGCACAAAUCGAAAUUCAGUAAUAGGUUCAACAUCAUCAUUGUCUUCCUCAUCUUCAUCAGAGAGAGGUUCUUUCAACAGAGGAUUGAGCAUCA
B12: chr11:29608638:29608639:+_ENSMUSG00000020458_ENSMUST00000102843|mus_mus|FALSE|FALSE (ssRNA)
RNA: GGGAGUUCUACAGUCCGACGAUCAAGUUUUUCCUCUGCUUCUUUCGUAAGUACUUUGGGUUUAACUAUGUUGCCCAUUUCUAUUUGAGAUUCCAAAGCAGAAACAUUUGGAAGCAAUAAGGGCACCUUAGAUACACUGGACCUCAACAGAGGAUUGAGCAUCA
B13: chr12:48362563:48362564:+_ENSG00000134291_ENST00000256686|hu_hu|hu_hu_hu_mus_False|18_38 (ssRNA)
RNA: GGGAGUUCUACAGUCCGACGAUCUCCGUCAAGCCCUUCGAUAGACCCUUGCGGGGGAAACUGUAAUCACUUUGUAUGGGGAAGGAAAAGAAACGCCAACACACUUUCAAAAAGCGGUUCAAAAAGCAGGCGGGAGGGGGAGGUCAACAGAGGAUUGAGCAUCA
B14: chr7:148047826:148047827:+_ENSMUSG00000025485_ENSMUST00000026558|mus_hu|FALSE|FALSE (ssRNA)
RNA: GGGAGUUCUACAGUCCGACGAUCCCCCAUUGGCUGGAUGACUCUGUUCCUGGAGAGCUUGUCAAACAUGGUCACCAGCUUCAUGGCCUCGUGCUCCUUCUGCUCCUCUGUCAUGCCCUCCAUAGGGUUAGGCGGCUUCUCCUCCAACAGAGGAUUGAGCAUCA
B15: chr2:9570881:9570882:+_ENSG00000119203_ENST00000238112|hu_mus|hu_hu_hu_mus_False|48_88 (ssRNA)
RNA: GGGAGUUCUACAGUCCGACGAUCACUUGUCUUCUGAAGGAACCAGGGCAGAGCUCCACAGUGAUCCAAAUGGAAAUGACUGAUCAAUAGGAGAUCAAUCUCAGCUGGGUCGAUAAGGUCAAUGUAAGGAAGGGCAUCCAUUCCCAACAGAGGAUUGAGCAUCA
B16: chr3:52726942:52726943:+_ENSG00000163938_ENST00000418458|hu_hu|FALSE|FALSE (ssRNA)
RNA: GGGAGUUCUACAGUCCGACGAUCUCGCAGAGCAAGCGCAGAGGAGGAAUUAAGUGGAGAUACGAUGAAGCUCGGACUAUCUAUGAUUGUGAUCUGUUUGUCCAAGGGGACAACUUGCAUGCUCCUUGUAAGCCCCAUGGAUACCAACAGAGGAUUGAGCAUCA
B17: chr5:33369694:33369695:+_ENSMUSG00000018965_ENSMUST00000019109|mus_hu|motif|central (ssRNA)
RNA: GGGAGUUCUACAGUCCGACGAUCGGAAUCCUCGUUUAGUGUGUCCAGCUCAGCUAUGGCAUCAUCGAAGGCUUGUUUGGCGGAGAGGCAGGCUUGCUCAGGUGCAUUCUGGAUCUCAUAGUAGAACACGGAGAAGUUGAGGGCCAACAGAGGAUUGAGCAUCA
B18: chr1:220276048:220276049:+_ENSG00000067704_ENST00000302637|hu_hu|hu_hu_hu_mus_True|48_48 (ssRNA)
RNA: GGGAGUUCUACAGUCCGACGAUCGCAAAUUGCCUGGUUGGCGGGAAUUGUCCAAGGCUGGGUGGUCCAAACUAAAACGCUAACAGGAGAUGAACCAUCUGUAAGAGACUCCAACUUCGGAGGAGGUCUCAGGAGGGGGAAUCUCAACAGAGGAUUGAGCAUCA
B19: 72180415_72186097_5597_CDS_ENSG00000066933_ENST00000356056|human|control|control (ssRNA)
RNA: GGGAGUUCUACAGUCCGACGAUCAAGUUUUGCUUGUUCAUCAACUGACGAAAAUCGCUGUGAUGUCUCUCUUUGGCCUGGCCCAGCUAACUUCACAGGUUUCCAUGCUGGUUCAUCUUCUUUAUGGAGUUGAGGAUUUUUACUCAACAGAGGAUUGAGCAUCA
B20: chr12:109547708:109547709:+_ENSG00000076248_ENST00000242576|hu_mus|FALSE|FALSE (ssRNA)
RNA: GGGAGUUCUACAGUCCGACGAUCAGACUUCUGGAGCAGUUCAUUGGCUUUAGAAAAAUGUCUGCAUCCCAGGAACCCUCUGUGCACCGACAGCGGGGAGGGGUGAGCUGUCUGCAGGACAUGGUGACGCUUCCUGUCAAUGACCAACAGAGGAUUGAGCAUCA
B21: chr7:141438946:141438947:+_ENSG00000106028_ENST00000265304|hu_mus|hu_hu_hu_mus_True|28_28 (ssRNA)
RNA: GGGAGUUCUACAGUCCGACGAUCGACGAAAUACCUGUAACACAGGUCUUCGAAACAUGGCUUCUGUUUUUCUUACAACCUAAUCUUUAGGCUUUUCCUAAAGGAAAAACCCGAGCAAGAAAAAUGAUAAAUCAAGAAACUACACAACAGAGGAUUGAGCAUCA
B22: chrX:71549762:71549763:+_ENSMUSG00000019087_ENSMUST00000019231|mus_mus|mus_mus_mus_hu_False|68_108 (ssRNA)
RNA: GGGAGUUCUACAGUCCGACGAUCAAAGUGUACCACUUCUUAUUGUUAGCACAACAUCACCAGAAAAAAAACAUAACAGCCAAGCAGGACAGACAGUUAAGUAGUACUUCCACACUCCCAAACUCAGGGAGCCCUAUAACCUUACAACAGAGGAUUGAGCAUCA

Some of the results follow.

In this assay the target is T1, UNK ZnF1-3 (human, UniProt Q9C0B0 31-174).
T1 sequence: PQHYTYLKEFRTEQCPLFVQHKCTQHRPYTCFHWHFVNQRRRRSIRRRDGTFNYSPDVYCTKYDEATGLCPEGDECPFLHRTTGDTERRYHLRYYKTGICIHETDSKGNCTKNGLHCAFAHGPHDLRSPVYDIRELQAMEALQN
Kind of assay: nsRBNS (natural sequence RNA bind-n-seq); RBNS binding buffer (assumed for nsRBNS): 25 mM Tris pH 7.5, 150 mM KCl, 3 mM MgCl2, 0.01% Triton X-100, 500 ug/ml BSA, 20 U/ml SUPERase-In, 4 C; UNK is unkempt and MSI1 is Musashi-1; names of the RNAs are library labels; protein concentration not given here; high values mean tight binding.
Molecule B1 gave a binding signal of 1.12 enrichment R.

For B2, the binding signal is 0.414 enrichment R.

As to B3, the binding signal is 0.809 enrichment R.

Molecule B4 registered a binding signal of 0.564 enrichment R.

B5: the binding signal turned out to be 0.876 enrichment R.

The molecule B6 came in with a binding signal of 0.748 enrichment R.

B7 yielded a binding signal of 0.412 enrichment R.

In turn, B8 returned a binding signal of 1.6 enrichment R.

Regarding B9, the binding signal was 1.36 enrichment R.

B10 came in with a binding signal of 1.87 enrichment R.

The molecule B11 came in with a binding signal of 1.07 enrichment R.

For the molecule B12, the binding signal came out at 0.769 enrichment R.

Molecule B13 gave a binding signal of 2.1 enrichment R.

As for B14, the binding signal worked out at 0.564 enrichment R.

Consider B15, for which the binding signal was 1.1 enrichment R.

B16 returned a binding signal of 0.858 enrichment R.

Molecule B17 came in with a binding signal of 1.39 enrichment R.

Molecule B18 showed a binding signal of 1.6 enrichment R.

In turn, B19 displayed a binding signal of 0.431 enrichment R.

The molecule B20 displayed a binding signal of 1.32 enrichment R.

Regarding B21, the binding signal turned out to be 0.374 enrichment R.

Turning to B22, the binding signal was found to be 1.57 enrichment R.
